The source of these data is paper PMC4336329 (PLoS ONE, 2015).

SMILES strings stand for the structures. The whole screen tested about 310,000 compounds, of which about 14,000 (4.5%) showed an effect of 50% or more. The effect is printed as a negative number. Some of the results follow.
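Also: peak tail current of the secondary pulse compared with the same well before compound.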

Sequence of human ether-à-go-go-related gene (hERG) potassium channel (Q12809 whole entry, looked up): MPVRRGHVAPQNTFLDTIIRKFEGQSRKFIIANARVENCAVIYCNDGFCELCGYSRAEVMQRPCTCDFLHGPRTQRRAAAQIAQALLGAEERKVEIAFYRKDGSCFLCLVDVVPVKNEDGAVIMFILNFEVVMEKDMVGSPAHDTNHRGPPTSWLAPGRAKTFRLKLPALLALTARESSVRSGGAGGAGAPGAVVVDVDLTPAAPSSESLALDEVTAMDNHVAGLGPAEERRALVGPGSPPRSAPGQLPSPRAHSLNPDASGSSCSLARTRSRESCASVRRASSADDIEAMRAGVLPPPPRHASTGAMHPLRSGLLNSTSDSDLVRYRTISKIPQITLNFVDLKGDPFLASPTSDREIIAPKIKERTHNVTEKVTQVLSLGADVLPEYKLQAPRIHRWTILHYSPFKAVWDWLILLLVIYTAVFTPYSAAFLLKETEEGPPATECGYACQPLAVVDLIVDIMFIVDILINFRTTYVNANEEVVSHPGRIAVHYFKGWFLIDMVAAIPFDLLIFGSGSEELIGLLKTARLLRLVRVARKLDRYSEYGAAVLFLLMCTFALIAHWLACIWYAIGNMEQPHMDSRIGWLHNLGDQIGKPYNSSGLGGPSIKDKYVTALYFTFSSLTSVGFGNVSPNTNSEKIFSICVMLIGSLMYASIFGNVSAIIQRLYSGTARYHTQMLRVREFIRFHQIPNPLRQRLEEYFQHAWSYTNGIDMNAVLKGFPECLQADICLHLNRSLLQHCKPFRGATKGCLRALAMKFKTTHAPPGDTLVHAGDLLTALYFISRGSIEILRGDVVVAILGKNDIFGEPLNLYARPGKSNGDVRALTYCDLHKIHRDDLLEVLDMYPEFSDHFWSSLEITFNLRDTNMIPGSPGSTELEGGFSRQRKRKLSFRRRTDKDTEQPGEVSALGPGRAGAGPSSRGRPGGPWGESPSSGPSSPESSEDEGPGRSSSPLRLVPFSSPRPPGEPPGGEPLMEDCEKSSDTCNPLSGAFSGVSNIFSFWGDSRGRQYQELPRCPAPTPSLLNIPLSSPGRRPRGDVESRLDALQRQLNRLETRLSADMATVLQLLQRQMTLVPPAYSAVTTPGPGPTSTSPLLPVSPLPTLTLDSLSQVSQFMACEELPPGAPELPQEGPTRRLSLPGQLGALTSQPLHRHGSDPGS

The test has as its target human ether-à-go-go-related gene (hERG) potassium channel (human, UniProt Q12809). Kind of test: primary screen, population patch clamp on CHO cells stably expressing hERG.
As to `CCOC(=O)c1oc2ccc(/C=N/O)c(Cl)c2c1C`, the “hERG current change (%, negative = inhibition) at 10uM” value is reported as 37.3%.
Then `Cc1c(NC(=O)C(C)Sc2n[nH]c(N)n2)c(=O)n(-c2ccccc2)n1C` (stereo not shown), with 17%; and `Cc1nn(C)cc1S(=O)(=O)Nc1ncccn1`, with 17.4%.
The result for `CCN(CC)S(=O)(=O)c1ccc(NC(=O)COC(=O)c2c[nH]c(=O)[nH]c2=O)cc1` reads 16.4%; that for `O=C1c2cccnc2C(=O)N1Cc1ccc(Cl)cc1`, -16.2%.
The result for `CCN(CC)CCN=Cc1c(O)n(CCC2=CCCCC2)c(=O)[nH]c1=O` reads -65.6%; that for `Cc1c(Cl)ccc2sc(N3CCN(C(=O)C4=COCCO4)CC3)nc12`, -4.45%; that for `O=C(Cc1cccs1)NCc1cccc(Cl)c1`, 12.3%.
As to `NC(=O)c1ccccc1NC(=O)N1CCOCC1`, the “hERG current change (%, negative = inhibition) at 10uM” value is listed as -2.02%.
As to `CC(C)(C)NC(=O)C(c1ccncc1)N(Cc1ccco1)C(=O)c1ccc(-c2ccccc2)[nH]1` (stereo not shown), the “hERG current change (%, negative = inhibition) at 10uM” value came to 19.3%.
The result for `NC(N)=NS(=O)(=O)c1ccc(N/C=C/C(=O)c2ccc(Cl)c(Cl)c2)cc1` reads 17.3%; that for `CCOC(=O)c1c(C)n(C)c2ccc(OC)c(NC(=O)c3cccs3)c12`, -0.453%.
For `C#CCOc1c(Br)cc(/C=C2/C(=O)ON=C2C)cc1OC`, the “hERG current change (%, negative = inhibition) at 10uM” value was found to be 18.6%.
Then `Cc1nc(N)ncc1-c1ccc2c(c1)OCO2`, with 16.7%; and `CC1(C)SC2c3ccccc3C(=O)N2[C@@H]1C(=O)NC1CCCC1` (stereo partly shown), with -12.3%; and `CCOc1cc(/C=N/Nc2nnc(C)n2N)ccc1O.Cl`, with 24.8%.
Then `O=C(CSc1n[nH]c(C2CCCC2)n1)NC1CCCC1`, with -4.69%; and `CC(C)n1cc(CN2CCCC(C(=O)Nc3cccc(-c4cc5ccccc5[nH]4)c3)C2)cn1` (stereo not shown), with -46.3%.
Then `N#Cc1sc2nc(C3CC3)cc(-c3ccccc3)c2c1N`, with 3.69%; and `N#Cc1ccccc1Sc1ccccc1C(=O)OCC(=O)NC12CC3CC(CC(C3)C1)C2`, with -0.947%; and `COc1ccc(S(=O)(=O)Nc2ccc(O)c3ccccc23)cc1`, with -10.2%.
`CCOC(=O)c1c(NC(=O)c2ccco2)sc2c1CCCC2`: the “hERG current change (%, negative = inhibition) at 10uM” value was 4.29%.
Then `CN(C)C1=NC[C@H](Cc2ccccc2)N1CCCC1CCCCC1`, with -70.8%; and `COc1ccccc1C(=O)NCCC(=O)N1CCN(c2ccccc2Cl)CC1`, with -13.5%.
Take `CCCCc1ccc(NC(=O)CN(C)CC(=O)Nc2ccccc2Cl)cc1`: the “hERG current change (%, negative = inhibition) at 10uM” value is -10.6%.
The result for `N/C(=N/O)c1nc(N2CCCC2)nc(N(c2ccccc2)c2ccccc2)n1` reads -3.65%; that for `Cc1csc(SCCn2c(Br)nc3c2c(=O)[nH]c(=O)n3C)n1`, -4.31%.
Then `COc1ccc2cc(C#N)c(N3CCN(C(=O)c4ccccc4C)CC3)nc2c1`, with -18.9%.
The result for `Cc1ccc(S(=O)(=O)N(CC(=O)Nc2cccc([N+](=O)[O-])c2)C2CCCCC2)cc1` reads 4.17%.
Turning to `CC(CC(C)C(=O)Nc1ccccc1C(C)(C)C)C(=O)O` (stereo not shown), the “hERG current change (%, negative = inhibition) at 10uM” value was found to be 6.12%.
The result for `CS(=O)(=O)Oc1ccc2c(c1)O/C(=C\c1cccnc1)C2=O` reads -3.92%; that for `O=C(Nc1cccc(C(F)(F)F)c1)c1cccn(Cc2ccc3c(c2)OC(F)(F)O3)c1=O`, 2.94%; that for `CCOc1cc(/C=N/NC(=O)C(=O)NCc2cccnc2)ccc1O`, -4.7%.
The result for `CCN(c1ccccc1)S(=O)(=O)c1cccc(C(=O)Nc2ccc(C)cn2)c1` reads -7.17%.
Then `N/C(=N\OC(=O)CCCc1ccccc1)c1ccccc1Cl`, with 2.96%; and `COc1ccc(S(=O)(=O)NCc2cc(=O)n(C)c(=O)n2C)cc1C`, with 22.6%.
Consider `COc1ccc(CC(=O)N/N=C(/C)c2ccco2)cc1`, for which the “hERG current change (%, negative = inhibition) at 10uM” value is -1.8%.
Consider `Cl.O=C(CCN1CCOCC1)N1c2ccccc2Sc2ccc(Cl)cc21`, for which the “hERG current change (%, negative = inhibition) at 10uM” value is -14.8%.
Then `O=C1C2CC=CCC2C(=O)N1c1ccc(NCCc2ccc(Cl)cc2)c([N+](=O)[O-])c1` (stereo not shown), with 2.1%; and `O=C(NCc1ccc2c(c1)OCO2)C1COc2ccccc2O1` (stereo not shown), with -7.41%.
The result for `COc1ccc(CC(=O)Oc2ccc(Br)cc2F)cc1S(=O)(=O)N1CCOCC1` reads -33%; that for `O=C(Nc1nc(-c2cccc3ccccc23)cs1)c1ccc2c(c1)S(=O)(=O)c1ccccc1C2=O`, 7.53%.
The result for `Cn1c2ccccc2c2cc(C(=O)O)ccc21` reads 6.48%.
In the case of `O=C(O)CSCc1nc2ccccc2s1`, the “hERG current change (%, negative = inhibition) at 10uM” value came to 14.6%.
Regarding `NNC(=O)c1csc(-c2ccccc2)n1`, the “hERG current change (%, negative = inhibition) at 10uM” value worked out at 15%.
In the case of `CCOC(=O)c1c(NC(=O)CCN2CCOCC2)sc(C)c1-c1ccccc1`, the “hERG current change (%, negative = inhibition) at 10uM” value came out at 37.9%.
As to `CCOC(=O)C1=C(COC(=O)/C=C/c2ccccc2)NC(=O)NC1C` (stereo not shown), the “hERG current change (%, negative = inhibition) at 10uM” value was 0.044%.
The result for `Cc1ccccc1CS(=O)(=O)CCC(=O)NCCCN1CCOCC1` reads -10.6%; that for `O=C(NC12CC3CC(CC(C3)C1)C2)N1CCN(c2ccccn2)CC1`, -6.35%.
Regarding `COc1ccc(-c2nnn(CC(=O)Nc3sc4c(c3C#N)CCCC4)n2)cc1`, the “hERG current change (%, negative = inhibition) at 10uM” value is 19.7%.
Then `Nc1c(C(=O)O)cnc2nc(N3CCOCC3)nn12`, with 21.7%; and `O=C(NC1CCCC1)C(c1cccs1)N(C(=O)c1ccco1)c1ccc2c(c1)OCO2` (stereo not shown), with -33.5%.
For the compound `Cn1nc(-c2ccc(S(N)(=O)=O)s2)cc1C(F)(F)F`, the “hERG current change (%, negative = inhibition) at 10uM” value came to 3.88%.
Then `CCc1nnc(NS(=O)(=O)c2ccc(NC(=O)c3cc(Cl)ccc3Cl)cc2)s1`, with 11.7%; and `COc1ccc2ccccc2c1/C=N/O`, with 7.38%.
Turning to `Cl.Clc1ccc(CNC2CCCC2)cc1`, the “hERG current change (%, negative = inhibition) at 10uM” value was -13.1%.
For `O=C(CSc1ccccc1)Nc1ccc2c(c1)OCCO2`, the “hERG current change (%, negative = inhibition) at 10uM” value is reported as -10.4%.
The result for `COc1ccccc1OCC#CCNC1CCCCC1C.O=C(O)C(=O)O` (stereo not shown) reads -36.7%; that for `O=C(O)c1c2c(nc3ccc(S(=O)(=O)N4CCC(C(=O)NC5CCCCCC5)CC4)cc13)CCCC2`, 18.1%.
Then `CC(=O)Nc1ccc(S(=O)(=O)NCC(=O)OCc2cc(=O)oc3ccc4ccccc4c23)cc1`, with 0.407%.
The result for `O=C(Nc1ccc(C(F)(F)F)cc1)OC1CN2CCC1CC2` (stereo not shown) reads -34.3%; that for `CCC(C)[C@H](NC(=O)Nc1ccccc1F)C(=O)OC` (stereo partly shown), 12%.
In the case of `Cc1onc(-c2ccccc2Cl)c1C(=O)Nc1cccc(-c2nc3ncccn3c2C)c1`, the “hERG current change (%, negative = inhibition) at 10uM” value is reported as -63%.
The result for `COc1cc(-c2noc(C3CCCN(C(=O)c4c(F)cccc4F)C3)n2)cc(OC)c1OC` (stereo not shown) reads 3.54%; that for `CN(/N=C/c1cc(Cl)cc(Cl)c1O)C(=S)NC(C)(C)C`, -48.8%; that for `N#C/C(=C\C1CC=CCC1)c1nc2ccccc2[nH]1` (stereo not shown), -10.5%.
The result for `CCN(CC)S(=O)(=O)c1ccc(N2CCOCC2)c(NC(=O)C(=O)c2c(-c3ccccc3)cc3ccccn23)c1` reads 3.48%; that for `C[C@@H](NC(=O)c1[nH]cnc1C(=O)Nc1ccccc1)c1ccccc1`, 11.8%.
The result for `O=C(O)c1cccc(NC(=O)c2cn(-c3ccccc3)nc2-c2ccc(F)cc2)c1` reads 20.4%; that for `CCOC(=O)N1CCN(C(=O)c2ccc(NC(=O)c3ccc(C)cc3)cc2)CC1`, -13.3%; that for `CCOC(=O)c1sc2cc([N+](=O)[O-])cc(SCC(C)C)c2c1N`, 6.2%.
`O=C(O)C1C2CCC(CC2)C1C(=O)N1CCN(Cc2ccc(F)cc2)CC1` (stereo not shown): the “hERG current change (%, negative = inhibition) at 10uM” value is recorded as 24.2%.
Then `CC(C)CCn1c(CN2CCN(C(=O)c3ccco3)CC2)nc2c1c(=O)n(C)c(=O)n2C`, with -39.9%; and `C=CCn1c(O)c2ccc(C(=O)N=NC(=O)c3ccc(F)cc3)cc2c1O`, with 1.04%.
The result for `CC(=O)N(/N=C1\Sc2ccccc2C1=O)c1ccccc1C` reads -25.6%; that for `Cc1ccc(Nc2nnc(SCC(=O)Nc3ncc(S(=O)(=O)c4ccc([N+](=O)[O-])cc4)s3)s2)cc1`, -14.5%; that for `O=S(=O)(c1ccc2c(c1)OCCO2)N(Cc1ccc(F)cc1)Cc1nnc(-c2cccs2)o1`, -3.03%.
In the case of `CCOC(=O)c1cc(C)n(-c2ccc(Cl)cc2)c1C`, the “hERG current change (%, negative = inhibition) at 10uM” value is -5.52%.
`O=C(/C=C/c1ccc(-c2ccccc2[N+](=O)[O-])o1)c1ccco1`: the “hERG current change (%, negative = inhibition) at 10uM” value is 15.4%.
For the compound `O=C(CSc1nc2ccccc2[nH]1)c1cccs1`, the “hERG current change (%, negative = inhibition) at 10uM” value was -8.91%.
The result for `COC(=O)c1c(C)[nH]c(C(=O)CN(C)CC(=O)Nc2cccc(F)c2)c1C` reads -22.2%; that for `CC(=O)N1CCc2cc(S(=O)(=O)NC(C)c3ccccc3)ccc21` (stereo not shown), 11%; that for `CCN(CCn1cccn1)C(=O)C1CCC(=O)N(CCc2cccc(F)c2)C1` (stereo not shown), 7.41%.
Then `CC(C)CCn1c(N)c(C(=O)OCC2CCCO2)c2nc3ccccc3nc21` (stereo not shown), with -35.3%; and `COc1ccc(-c2c(C)c3ccc(O)cc3oc2=O)cc1OC`, with 17.9%.
Then `COc1ccc(OC)c(/C=N/n2c(C)nc3ccccc3c2=O)c1`, with 5%; and `CC1(C)NC(=O)N(CC(=O)O)C1=O`, with 18%; and `COc1ccc(CN2CCN(Cc3ccc(OC)c(OC)c3OC)CC2)cc1.O=C(O)C(=O)O`, with -41.3%.
